Experimental data taken from publication PMC10668032.
This is one part of the list. At the low end of the ranking the order means little.

The sequences below were run against SIX1 homeodomain (reference allele) (UniProt Q15475) (assay: universal protein binding microarray). Conditions: Universal all-10-mer PBM (8x60K, AMADID 030236), 300 nM GST-tagged protein, Alexa Fluor 488 anti-GST; buffer, salt, pH and temperature not stated; high values mean tight binding; most listed sequences are background and not binding sites; double strand, one strand shown.

Row | Sequence | binding signal
1 | CAAGCGGA | 0.14 E-score
2 | CGTTTCCC | -0.331 E-score
3 | TCTGAAGA | -0.0225 E-score
4 | GAACCATC | -0.117 E-score
5 | ATGATGTG | -0.195 E-score
6 | ATGAATGG | -0.0943 E-score
7 | CTATATAA | -0.0277 E-score
8 | CCGTGGCC | -0.169 E-score
9 | GGTATCAC | 0.497 E-score
10 | GCTTCTCC | 0.0455 E-score
11 | GTCGTAGA | -0.103 E-score
12 | CATCGGCG | -0.00146 E-score
13 | CACTGCGC | -0.17 E-score
14 | CGGGCGAA | -0.242 E-score
15 | GGAATGTA | 0.0484 E-score
16 | GGAAGGCA | -0.24 E-score
17 | CACGAGGG | -0.0578 E-score
18 | AACGTAAC | -0.152 E-score
19 | AAATTAGG | -0.199 E-score
20 | ATCGTACC | 0.217 E-score
21 | AAGAGTGA | -0.0741 E-score
22 | GGTCGGCA | -0.0937 E-score

Row | Sequence | binding signal
23 | CAGGAACC | -0.129 E-score
24 | ATCAGGTA | 0.293 E-score
25 | AATTCCCT | -0.152 E-score
26 | ATTTTGTG | 0.0391 E-score
27 | GATCGGGA | 0.314 E-score
28 | CCGGGCCC | -0.156 E-score
29 | ACATCTCT | -0.0709 E-score
30 | AACGTGGG | -0.236 E-score
31 | CAACAGTA | -0.116 E-score
32 | AACGAACA | 0.0688 E-score
33 | ATTATATG | 0.182 E-score
34 | ATAACGTG | 0.0774 E-score
35 | CTTCGCCA | -0.199 E-score
36 | TGCTAACA | -0.073 E-score
37 | TACGTGCA | -0.0998 E-score
38 | ATACCAAA | 0.317 E-score
39 | AATGAATG | -0.0801 E-score
40 | GGGACCAC | -0.00475 E-score
41 | CCCCGTGA | 0.0685 E-score
42 | ATGTGCTG | -0.174 E-score
43 | AGTTGTTG | -0.318 E-score
44 | CCCACACA | -0.00729 E-score

Row | Sequence | binding signal
45 | TAGGCGAA | 0.164 E-score
46 | AATGGAGA | 0.05 E-score
47 | CAAAGATC | 0.209 E-score
48 | ACGTATGA | 0.097 E-score
49 | TAAACCCA | 0.161 E-score
50 | CACCCTTC | 0.242 E-score
51 | ACCTCGCG | 0.0472 E-score
52 | ATAAGCAA | -0.0383 E-score
53 | GTCCTTCA | -0.0662 E-score
54 | CTAAGGAA | -0.285 E-score
55 | ACTGCCTA | -0.138 E-score
56 | TCCTGCCA | -0.156 E-score
57 | CGCGGGCC | -0.272 E-score
58 | CTGATTCA | -0.0782 E-score
59 | AATCCTAT | 0.176 E-score
60 | AGGCAGAA | -0.149 E-score
61 | ACCGTGCT | -0.0817 E-score
62 | GCGCGGCC | -0.319 E-score
63 | GAGGTGTA | 0.233 E-score
64 | GGTGTGAC | 0.134 E-score
65 | ACAGAGCC | -0.234 E-score
66 | GAACCACA | -0.122 E-score

Row | Sequence | binding signal
67 | CACCGCAA | 0.0376 E-score
68 | CCATCTGA | 0.259 E-score
69 | CCGCAAGC | -0.283 E-score
70 | AGGCAACG | -0.0413 E-score
71 | GTTTTCCA | -0.17 E-score
72 | GAACATCA | -0.319 E-score
73 | CACTTCAC | -0.102 E-score
74 | CATGGCTA | 0.0932 E-score
75 | GGATAAAA | 0.166 E-score
76 | CGATCCGA | 0.396 E-score
77 | GTCGAGGA | -0.0201 E-score
78 | ATGAGGTC | -0.101 E-score
79 | CATCCCAC | 0.0433 E-score
80 | CGGGGATA | 0.413 E-score
81 | GGCCCAAA | -0.176 E-score
82 | CCTCACTC | -0.053 E-score
83 | CACAGTAC | -0.0473 E-score
84 | AGTTAGAG | -0.0581 E-score
85 | AAGCCCGC | -0.0111 E-score
86 | GGGTCCAC | 0.0781 E-score
